The other results are listed elsewhere or left out. The energies were worked out here from pooled read counts, against the library average; single values are noisy.

This assay deals with T1, Pho4 (S. cerevisiae) (UniProt P07270).
T1 sequence: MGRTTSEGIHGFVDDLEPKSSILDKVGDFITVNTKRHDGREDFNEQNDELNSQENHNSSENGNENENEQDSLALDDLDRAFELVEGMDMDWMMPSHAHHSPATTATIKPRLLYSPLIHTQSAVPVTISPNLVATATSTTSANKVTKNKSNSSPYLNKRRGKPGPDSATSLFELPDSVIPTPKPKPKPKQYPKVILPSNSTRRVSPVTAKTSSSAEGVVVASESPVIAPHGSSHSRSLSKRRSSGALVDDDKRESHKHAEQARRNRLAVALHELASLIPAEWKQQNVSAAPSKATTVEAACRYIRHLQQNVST
Nature of the assay: relative binding free energy (BET-seq); higher = weaker binding. The following applies: reference: library average.
GACTGCACGTGTAGGT: the “relative binding free energy” value was determined as 0.07 kcal/mol.

Consider GAATGCACGTGGTATG, for which the “relative binding free energy” value came out at 0.08 kcal/mol.

Consider ATAGGCACGTGGGGCA, for which the “relative binding free energy” value is -0.39 kcal/mol.

With TACAGCACGTGTGGTG, the “relative binding free energy” value is -0.01 kcal/mol.

As for GTATGCACGTGAGTTC, the “relative binding free energy” value was 0.33 kcal/mol.

As for GTAGGCACGTGTTGGC, the “relative binding free energy” value was 0.05 kcal/mol.

As for AGGGCCACGTGCGCGG, the “relative binding free energy” value is -0.28 kcal/mol.

With TTGTCCACGTGAGGAG, the “relative binding free energy” value came to 0.27 kcal/mol.

On to TGCTTCACGTGTATGG, for which the “relative binding free energy” value is 0.12 kcal/mol.

With CGGACCACGTGGTGTG, the “relative binding free energy” value is -0.21 kcal/mol.

Take TAATTCACGTGAGTGC: the “relative binding free energy” value was 0.4 kcal/mol.

On to AGAATCACGTGCGGTA, for which the “relative binding free energy” value worked out at 0.27 kcal/mol.

As for ATAATCACGTGATTGT, the “relative binding free energy” value amounted to 0.26 kcal/mol.

On to TTACACACGTGGGGGG, for which the “relative binding free energy” value is -0.11 kcal/mol.

In the case of TTAATCACGTGGATTG, the “relative binding free energy” value is 0.04 kcal/mol.

As to GGTTTCACGTGTTTAT, the “relative binding free energy” value came to 0.29 kcal/mol.

Regarding ATACGCACGTGTATGT, the “relative binding free energy” value was -0.13 kcal/mol.

In the case of ATTCGCACGTGAGGTG, the “relative binding free energy” value turned out to be 0.15 kcal/mol.

TCTTGCACGTGTTCAG: the “relative binding free energy” value was 0.01 kcal/mol.

In the case of CGAGGCACGTGGGCGC, the “relative binding free energy” value is -0.26 kcal/mol.

Consider TACTGCACGTGTAGGG, for which the “relative binding free energy” value was -0.01 kcal/mol.

Turning to GCAGGCACGTGAGCGG, the “relative binding free energy” value is -0.02 kcal/mol.

GTAGACACGTGGCTGG: the “relative binding free energy” value stood at 0.07 kcal/mol.

Take CATATCACGTGTTGGT: the “relative binding free energy” value stood at 0 kcal/mol.

Turning to TTTGACACGTGATTAT, the “relative binding free energy” value was found to be 0.12 kcal/mol.

For the sequence GTAGTCACGTGTTTCT, the “relative binding free energy” value came to 0.2 kcal/mol.

In the case of AGTTTCACGTGGGTTA, the “relative binding free energy” value is 0.25 kcal/mol.

For AGGTACACGTGGCTTG, the “relative binding free energy” value is -0.09 kcal/mol.

As for TGAGTCACGTGATTGT, the “relative binding free energy” value was 0.19 kcal/mol.

On to GGTGACACGTGATGGG, for which the “relative binding free energy” value is 0.21 kcal/mol.

As to GGGGACACGTGATAAT, the “relative binding free energy” value was 0.24 kcal/mol.

Consider TCTTTCACGTGTTGAT, for which the “relative binding free energy” value was found to be 0.17 kcal/mol.

As to GTGGTCACGTGAGTTC, the “relative binding free energy” value was found to be 0.29 kcal/mol.

With AGTTACACGTGTGTAA, the “relative binding free energy” value is 0.07 kcal/mol.

Consider GTAGTCACGTGGTGCT, for which the “relative binding free energy” value turned out to be 0.1 kcal/mol.

As to GTGTGCACGTGTAGCG, the “relative binding free energy” value stood at 0.07 kcal/mol.

For TTGGTCACGTGGAGGC, the “relative binding free energy” value was determined as 0.2 kcal/mol.

Turning to GGTTCCACGTGGCGTT, the “relative binding free energy” value is -0.03 kcal/mol.

As for CTGGACACGTGTGTAG, the “relative binding free energy” value was determined as 0.16 kcal/mol.

As to GGGGGCACGTGTTTTA, the “relative binding free energy” value was -0.08 kcal/mol.

With GGAGCCACGTGGTTTT, the “relative binding free energy” value is 0.02 kcal/mol.

On to TTTCTCACGTGGTAAG, for which the “relative binding free energy” value was found to be 0.1 kcal/mol.

On to TTTGTCACGTGTGCTA, for which the “relative binding free energy” value is 0.16 kcal/mol.

In the case of AAAAACACGTGGTTTT, the “relative binding free energy” value came out at 0.04 kcal/mol.

As to ATTGGCACGTGTCATT, the “relative binding free energy” value is -0.07 kcal/mol.

As for CTGTACACGTGTTGAT, the “relative binding free energy” value was -0.02 kcal/mol.

For TACGTCACGTGGGTCT, the “relative binding free energy” value was 0.02 kcal/mol.

For GGGTACACGTGTATAG, the “relative binding free energy” value amounted to 0.09 kcal/mol.

As for TTTGCCACGTGTTGAT, the “relative binding free energy” value is -0.16 kcal/mol.

For the sequence GATTGCACGTGGAATT, the “relative binding free energy” value came to 0.23 kcal/mol.

As to CATTGCACGTGGGGGT, the “relative binding free energy” value stood at 0.03 kcal/mol.

On to CGGTTCACGTGTTTTT, for which the “relative binding free energy” value stood at 0.16 kcal/mol.

In the case of GTTTGCACGTGATCGT, the “relative binding free energy” value is 0.08 kcal/mol.

On to AGCGTCACGTGTGCGT, for which the “relative binding free energy” value was determined as 0 kcal/mol.

In the case of TATATCACGTGTGTCG, the “relative binding free energy” value came to 0.04 kcal/mol.

GTGGGCACGTGGTCTC: the “relative binding free energy” value is -0.19 kcal/mol.

With CATATCACGTGTATGT, the “relative binding free energy” value worked out at 0.12 kcal/mol.

Turning to ATGGTCACGTGGGGTG, the “relative binding free energy” value was -0.08 kcal/mol.

For the sequence TCTGGCACGTGGCGCT, the “relative binding free energy” value is 0.03 kcal/mol.

Turning to TTTTCCACGTGAGTTT, the “relative binding free energy” value came out at 0.45 kcal/mol.

As to ATGAGCACGTGGTTCT, the “relative binding free energy” value is -0.05 kcal/mol.

Regarding CGTGGCACGTGGCGTA, the “relative binding free energy” value is -0.19 kcal/mol.

For TGGGCCACGTGGGCCG, the “relative binding free energy” value was -0.13 kcal/mol.

Turning to GGCTTCACGTGGTTCG, the “relative binding free energy” value stood at 0.3 kcal/mol.

On to GTGTTCACGTGTCGAG, for which the “relative binding free energy” value was 0.31 kcal/mol.

In the case of ATGTTCACGTGCGAGT, the “relative binding free energy” value was found to be 0.24 kcal/mol.

Regarding GGGTACACGTGCTTTG, the “relative binding free energy” value is -0.04 kcal/mol.

In the case of GTGTTCACGTGTCAGT, the “relative binding free energy” value turned out to be 0.2 kcal/mol.

As for TGCTGCACGTGCTTGT, the “relative binding free energy” value is -0.18 kcal/mol.

In the case of TCTTTCACGTGTGTTT, the “relative binding free energy” value is 0.28 kcal/mol.

Consider TGAGCCACGTGAGGAG, for which the “relative binding free energy” value worked out at 0.11 kcal/mol.

Regarding CTGGTCACGTGATGTT, the “relative binding free energy” value was 0.17 kcal/mol.

Regarding CGCAGCACGTGGGGTA, the “relative binding free energy” value is -0.26 kcal/mol.

As to CGTTGCACGTGGGTAT, the “relative binding free energy” value is -0.29 kcal/mol.

As to GGGCGCACGTGTGGAA, the “relative binding free energy” value came to 0.03 kcal/mol.

On to TGGGACACGTGTAGAG, for which the “relative binding free energy” value amounted to 0.16 kcal/mol.

Turning to TTGGTCACGTGCTGCG, the “relative binding free energy” value was -0.01 kcal/mol.

On to AGTGGCACGTGCTTGA, for which the “relative binding free energy” value was -0.31 kcal/mol.

Regarding GGTCTCACGTGTTAGT, the “relative binding free energy” value was found to be 0.19 kcal/mol.

For the sequence TGGGGCACGTGCTTTA, the “relative binding free energy” value is -0.19 kcal/mol.

ATGGGCACGTGGTCTG: the “relative binding free energy” value is -0.16 kcal/mol.

As for GGGGACACGTGATCTG, the “relative binding free energy” value stood at 0.11 kcal/mol.

As to GCTTTCACGTGGCATG, the “relative binding free energy” value stood at 0.26 kcal/mol.

With ATATGCACGTGTTGGC, the “relative binding free energy” value was -0.1 kcal/mol.

On to AGATGCACGTGGTGAA, for which the “relative binding free energy” value is -0.11 kcal/mol.

As for GTACGCACGTGTTGTT, the “relative binding free energy” value was -0.09 kcal/mol.

Turning to AATAACACGTGTAGTG, the “relative binding free energy” value was -0.05 kcal/mol.

Consider AGGAGCACGTGGTGGG, for which the “relative binding free energy” value was -0.15 kcal/mol.

Turning to GTTAGCACGTGCTGGA, the “relative binding free energy” value is -0.11 kcal/mol.

For the sequence GGTTACACGTGTCAGG, the “relative binding free energy” value is -0.01 kcal/mol.

Take TTCGGCACGTGGTGGC: the “relative binding free energy” value is -0.13 kcal/mol.

In the case of ACTTTCACGTGTTGAT, the “relative binding free energy” value was 0.14 kcal/mol.

For GTGCACACGTGGGAGG, the “relative binding free energy” value came to 0.02 kcal/mol.

For TAGGACACGTGGAGTT, the “relative binding free energy” value is -0.06 kcal/mol.

With TAGTACACGTGAATAG, the “relative binding free energy” value turned out to be 0.45 kcal/mol.

For TCGTTCACGTGTCGGG, the “relative binding free energy” value was 0.19 kcal/mol.

Turning to TTGTACACGTGGTTTT, the “relative binding free energy” value stood at 0.11 kcal/mol.

Take CATGTCACGTGGGGCT: the “relative binding free energy” value was -0.1 kcal/mol.

Consider GTGGGCACGTGTGGAC, for which the “relative binding free energy” value is -0.03 kcal/mol.

On to TAGTTCACGTGCTGGT, for which the “relative binding free energy” value was 0.3 kcal/mol.

Take ACGAGCACGTGGGGGT: the “relative binding free energy” value was -0.23 kcal/mol.

Turning to TCTTGCACGTGTAAGG, the “relative binding free energy” value was determined as 0.12 kcal/mol.

TGTATCACGTGGGTGC: the “relative binding free energy” value was -0.02 kcal/mol.

For TAGGCCACGTGTGAGA, the “relative binding free energy” value was determined as 0.04 kcal/mol.

In the case of ACTTTCACGTGGGTTT, the “relative binding free energy” value is 0.11 kcal/mol.

With ATTGTCACGTGGCGTC, the “relative binding free energy” value was found to be 0.03 kcal/mol.

Consider TGTAACACGTGGTGCT, for which the “relative binding free energy” value is -0.12 kcal/mol.

For the sequence GGTGGCACGTGCGCGA, the “relative binding free energy” value is -0.26 kcal/mol.

In the case of CGTTCCACGTGTGGGG, the “relative binding free energy” value is -0.02 kcal/mol.

Regarding TGGGTCACGTGGTTTC, the “relative binding free energy” value came to 0.2 kcal/mol.

As for TAAATCACGTGTCGGG, the “relative binding free energy” value came to 0.24 kcal/mol.

CATGGCACGTGTAGTG: the “relative binding free energy” value came to 0.08 kcal/mol.

On to TAGGTCACGTGGTTAC, for which the “relative binding free energy” value came out at 0.13 kcal/mol.

For the sequence GCGGGCACGTGAGCTG, the “relative binding free energy” value amounted to 0.08 kcal/mol.

As for GGCAGCACGTGACTGG, the “relative binding free energy” value stood at 0.2 kcal/mol.

The record behind these values is the BET-seq Pho4 binding data (Le et al. 2018).
